Measured values published in PubChem BioAssay AID686978 (National Center for Advancing Translational Sciences (NCATS), 2013).
The campaign covered roughly 420,000 compounds. About 64,000 (15%) were called active. Inconclusive means that the source gave no clear call. Such entries were picked first, then a sample of the others. Calls come from the whole dose curve; as a rule, active = well fitted inhibition curve with a large enough effect; inconclusive = small, poorly fitted or top-dose-only effect; inactive = flat fitted curve, though single readings scatter. Potencies of inconclusive entries are left out as doubtful fits.

Experiment: qHTS for Inhibitors of human tyrosyl-DNA phosphodiesterase 1 (TDP1): qHTS in cells in absence of CPT; note: nearly all actives have a fitted effect of over 55% in size
Conditions: DT40 Tdp1-/- hTDP1 cells, no CPT, ATP luminescence, 48 h; activity change, negative = growth inhibition: at 46.2 µM (top of the series)
Method in brief: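 Growth of hTDP1-complemented DT40 Tdp1-knockout cells is measured by ATP luminescence after at least 48 hr compound exposure at 37 °C, with DMSO substituting for the 20 nM CPT used in the parallel screen.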
% is set by controls: 0 for no effect and ±100 for the full control effect; potency is the fitted concentration of half-maximal effect; tags give direction and shape of the fitted curve.

Structure (SMILES)	Potency	activity change, negative = growth inhibition
Cc1c(NS(=O)(=O)c2cc(Br)cc3c2N(C(=O)C2CC2)CC3)c(=O)n(-c2ccccc2)n1C	inconclusive [inhibitor, partial curve]	
CN(C1CCCCC1)S(=O)(=O)c1cccc(C(=O)Nc2ccccn2)c1	inconclusive [inhibitor, partial curve]	
CC(C)=CC(=O)OCc1csc(CC(=O)Nc2ccccc2C)n1		inactive: 11.5%
CCOC(=O)N(C)C[C@H]1OCc2cnnn2CCCC(=O)N([C@@H](C)CO)C[C@H]1C		inactive: -20.6%
CCOC(=O)C(C)Sc1nc(=O)n2ccccc2n1 (centres undefined)	inconclusive [inhibitor, single point]	
Cc1oc(-c2ccccc2)cc1C(=O)NC1CCN(Cc2ccccc2)CC1		inactive: -27%
CC1=CC(C)(C)NC(=S)N1c1cccc(C)c1	inconclusive [inhibitor, partial curve]	
O=C(NCCc1ccccc1)C(=O)NCC(c1ccco1)S(=O)(=O)c1ccccc1 (centres undefined)		inactive: -56.5%
Nc1nonc1-c1nc2ccccc2n1CC(=O)Nc1ccccc1	inconclusive [inhibitor, partial curve]	
CC(C)Oc1ccccc1/C=N/NC(=O)c1ccc(F)cc1		inactive: 1.53%
Cc1cc(N)n(-c2ncnc3scc(-c4ccc(Cl)cc4)c23)n1		inactive: -20.7%
O=Cc1c(Cl)nc2ccccn2c1=O	active: 16.4 µM	
Nc1c[n+](N2CCOCC2)no1	inconclusive [inhibitor, partial curve]	
CC1=NN(C(=O)Cc2ccc([N+](=O)[O-])cc2)C(O)(C(F)(F)C(F)(F)F)C1 (centres undefined)	inconclusive [inhibitor, single point]	
COc1ccc(NC(=O)CCCc2ccccc2)c(OC)c1	inconclusive [inhibitor, single point]	
Cc1sc(NC(=O)c2ccc(Cl)s2)c(C(N)=O)c1C	inconclusive [inhibitor, single point]	
O=C(Nc1ncn[nH]1)c1cc([N+](=O)[O-])ccc1Cl		inactive: 5.05%
O=C(c1ccc(CS(=O)c2cccc(Cl)c2)o1)N1CCCCCC1 (centres undefined)	active: 23.1 µM	
Cc1nn(-c2ccccc2)cc1/C=N/NC(N)=S	inconclusive [inhibitor, single point]	
CCOc1cc(Cl)c(S(=O)(=O)NCCCN2CCOCC2)cc1Cl	inconclusive [inhibitor, partial curve, poor fit]	
Nc1ccc(C#Cc2ccc3oc4ccccc4c(=O)c3c2)cc1	inconclusive [inhibitor, full curve, poor fit]	
COc1ccc(C2CC(c3ccccc3)Nc3nc(NS(C)(=O)=O)nn32)cc1 (centres undefined)		inactive: -22.5%
Cc1ccc(C(=O)/C=C/Nc2ccccc2C(N)=O)o1		inactive: -5.09%
Cc1cc(C)c(C)c(OCC(=O)NCCN(C)C)c1		inconclusive: -31.1% [inhibitor]
O=C(OCC(=O)N1CCCCCC1)c1cccc(Cl)c1Cl	inconclusive [inhibitor, single point]	

Structure (SMILES)	Potency	activity change, negative = growth inhibition
O=C(CCSCc1ccc(Cl)cc1)NCCC1=CCCCC1		inconclusive: -30.6% [inhibitor]
O=C1Nc2c(Br)cc(Br)c3cccc1c23		inconclusive: -32.2% [inhibitor]
COc1cc(C2C(C#N)=C(N)OC3=C2C(=O)CC(C)(C)C3)c([N+](=O)[O-])cc1OC (centres undefined)		inactive: -12%
Cc1nc2sc3c(c2c(=O)n1/N=C/c1cccnc1)CCCC3	inconclusive [inhibitor, single point]	
COc1ccc(C(=O)NCCNc2ccccc2[N+](=O)[O-])cc1		inactive: -22.3%
O=C(Cc1ccccc1Cl)Nc1nc2ccccc2[nH]1	inconclusive [inhibitor, single point]	
CCN(CC)C(=O)c1ccc(CS(=O)(=O)c2ccc(OC)cc2)o1		inconclusive: -35.8% [inhibitor]
CCOC(=O)C(=O)Nc1nnc2n1CCS2		inactive: -6.84%
O=C(c1ccc([N+](=O)[O-])cc1)N(Cc1cccs1)C1CCS(=O)(=O)C1 (centres undefined)		inactive: -2.33%
COc1cc(C(C)=O)ccc1OCC(O)CN1CCN(c2c(C)cccc2C)CC1 (centres undefined)	inconclusive [inhibitor, partial curve]	
C=CCOc1c(CNc2ncn[nH]2)cccc1OC		inactive: 14.8%
Cn1c(=O)c2c(ncn2CC(=O)OCC(=O)NNC(=O)c2ccc(Cl)cc2)n(C)c1=O		inactive: 2.87%
COc1cc(C(=O)N2CC(=O)Nc3ccccc32)cc(OC)c1OC	active: 8.2 µM	
Cn1c2c(c(=O)n(C)c1=O)[C@@]1(C(=O)Nc3ccccc31)C(C#N)=C(N)O2	inconclusive [inhibitor, single point]	
O=C(Nc1ccc(N2CCN(C(=O)c3ccco3)CC2)cc1)c1cc(Br)ccc1Cl	inconclusive [inhibitor, single point]	
CCCCC[C@H](O)/C=C/[C@H]1C(=O)C=C[C@@H]1C/C=C\CCCC(=O)O		inactive: 14% [at 4.12 µM]
COC(=O)C1=CN(c2cc(C)cc(C)c2)C=C(C(=O)OC)C1c1ccc(OC)c(O)c1	inconclusive [inhibitor, single point]	
Cc1nc(N2CCCC2)ncc1C(=O)N1CCN(c2ccc(Cl)cc2)CC1	inconclusive [inhibitor, full curve, poor fit]	
O=C(Oc1ccc(OC(=O)c2ccco2)c(S(=O)(=O)c2ccc(Cl)cc2)c1)c1ccco1	active: 16.4 µM	
ClCc1nc2ccccc2n1Cc1ccccc1	active: 7.31 µM	
CSCc1cc(C(=O)NCCN2CCOCC2)c(N)s1		inactive: -9.47%
CC1C(=O)Nc2ccc(S(=O)(=O)N3CCc4ccccc4C3)cc2NC1=O (centres undefined)	inconclusive [inhibitor, single point]	
CCN(C(=O)COc1ccc(C)cc1OC)c1cccc2ccccc12	inconclusive [inhibitor, single point]	
COc1cc(C(=O)NC(=S)N(CCC#N)Cc2cccnc2)cc(OC)c1OC	inconclusive [inhibitor, single point]	
